Test results reported in PubChem BioAssay AID504339 (National Center for Advancing Translational Sciences (NCATS), 2011).
About 17,000 (4.4%) of roughly 390,000 compounds were called active. The shares of active, inactive and inconclusive entries below differ from those in the screen. Calls follow the shape of the dose curve; as a rule, active = well fitted inhibition curve with a large enough effect; inconclusive = small, poorly fitted or top-dose-only effect; inactive = no such curve, though single readings can be large or run the other way. Potencies beside an inconclusive call are fits to weak or partial responses and may not hold up.

Molecular target: Lysine-specific demethylase 4A (Homo sapiens) (UniProt O75164)
Sequence of UniProt O75164 (O75164 whole entry, looked up, the tested form may be a part): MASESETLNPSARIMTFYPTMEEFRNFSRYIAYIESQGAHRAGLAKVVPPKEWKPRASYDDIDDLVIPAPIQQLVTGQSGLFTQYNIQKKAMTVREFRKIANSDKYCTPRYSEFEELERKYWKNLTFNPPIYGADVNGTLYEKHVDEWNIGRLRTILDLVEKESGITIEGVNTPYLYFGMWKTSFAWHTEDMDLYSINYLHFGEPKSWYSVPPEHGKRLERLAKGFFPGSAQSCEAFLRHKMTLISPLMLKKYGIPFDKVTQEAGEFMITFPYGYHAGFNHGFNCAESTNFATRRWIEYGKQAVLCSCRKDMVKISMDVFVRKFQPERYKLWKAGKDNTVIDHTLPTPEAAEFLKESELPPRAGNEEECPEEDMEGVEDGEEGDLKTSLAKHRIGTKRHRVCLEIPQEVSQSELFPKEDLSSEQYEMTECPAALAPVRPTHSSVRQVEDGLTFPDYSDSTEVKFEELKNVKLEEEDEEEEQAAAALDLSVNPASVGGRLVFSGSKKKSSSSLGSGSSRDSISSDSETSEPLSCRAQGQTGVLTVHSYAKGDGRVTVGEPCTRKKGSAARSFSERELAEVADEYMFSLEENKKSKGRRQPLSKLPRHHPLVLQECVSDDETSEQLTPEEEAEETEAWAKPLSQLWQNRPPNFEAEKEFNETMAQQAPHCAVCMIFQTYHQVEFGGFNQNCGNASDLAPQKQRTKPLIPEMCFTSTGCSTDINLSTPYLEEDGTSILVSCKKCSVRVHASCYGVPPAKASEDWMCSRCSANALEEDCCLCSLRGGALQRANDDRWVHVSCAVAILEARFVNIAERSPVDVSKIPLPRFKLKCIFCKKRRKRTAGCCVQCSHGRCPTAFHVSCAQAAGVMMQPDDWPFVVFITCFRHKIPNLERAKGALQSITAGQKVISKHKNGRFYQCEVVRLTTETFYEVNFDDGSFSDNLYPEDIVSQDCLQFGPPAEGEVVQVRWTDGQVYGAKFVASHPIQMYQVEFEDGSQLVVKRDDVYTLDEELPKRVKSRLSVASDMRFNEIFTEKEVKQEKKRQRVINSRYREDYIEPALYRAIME
Experiment: qHTS Assay for Inhibitors of JMJD2A-Tudor Domain; also: nearly all actives have a fitted effect of over 50% in size
Details: AlphaScreen JMJD2A-Tudor / H3K4me3 peptide binding; activity change, negative = inhibition: at 114 µM (top of the series)
% is scaled to controls: 0 for no effect and ±100 for the full control effect; potency is read from the fitted curve at half-maximal effect; tags tell the direction and shape of the fitted curve.

Potency, active:
c1ccc(-c2csc3ncn4nnnc4c23)cc1 14.1 µM
CCn1c2ccccc2c2cc(CN3CCN(Cc4ccc(OC)c(OC)c4)CC3)ccc21 4.47 µM
Cc1ccc(NC(=O)C2(c3ccccc3)CCOCC2)cc1 50.1 µM
c1ccc(CSc2nnc(-c3ccco3)c(-c3ccco3)n2)cc1 17.8 µM
CCCOc1ccc(C(=O)NNC(=S)NC(C)=O)cc1 28.2 µM
COc1cc(OC)c(OC)cc1CNc1cc(C)ccc1OC 39.8 µM
COc1ccc(NC(=S)NC(NC(=O)c2cccc(Cl)c2)C(Cl)(Cl)Cl)c([N+](=O)[O-])c1 (stereo unspecified) 22.4 µM
C=CCn1c(SCC(=O)Nc2ccc3c(c2)OCCO3)nnc1-c1ccccn1 89.1 µM

Potency, inactive:
Cc1ccc(-n2c3c(c(=O)[nH]c2=O)C(NS(=O)(=O)c2ccc(Cl)cc2)(C(F)(F)F)C(=O)N3)cc1 (stereo unspecified)

Potency, inconclusive:
CCc1cccc(CC)c1NC(=S)NCc1ccc2[nH]c(C)cc2c1 50.1 µM [inhibitor, partial curve]
Cc1ccc(Cl)cc1N1CCN(C2(c3ccccc3)C(=O)c3ccccc3C2=O)CC1 3.16 µM [inhibitor, partial curve]
O=C(Nc1cccc(-c2nc3cccnc3s2)c1)C1c2ccccc2Oc2ccccc21 50.1 µM [inhibitor, partial curve, poor fit]
O=C(NCc1ccc2c(c1)OCO2)c1cc2ncc(Br)cn2n1 44.7 µM [inhibitor, partial curve, poor fit]
Cc1ccc(C(=O)Oc2ccc(C(=O)COC(=O)C3CC(=O)N(Cc4ccco4)C3)cc2)cc1 (stereo unspecified) 31.6 µM [inhibitor, single point]
COc1ccc(N2CCN(C(=O)CSc3nc4ccccc4nc3Cc3ccc(Cl)cc3)CC2)cc1 14.1 µM [inhibitor, full curve]
COc1cc(/C=C2/SC(=S)N(CCC(=O)Nc3ccc(C(=O)O)cc3)C2=O)cc(OC)c1OC 50.1 µM [inhibitor, partial curve]
Cc1cc(C(=O)N2CCc3c([nH]c4ccccc34)C2c2cccc(Cl)c2)nn1C (stereo unspecified) 44.7 µM [inhibitor, partial curve]
COc1nc(-c2ccccc2)c2cc(C)ccc2n1 35.5 µM [inhibitor, single point]
CCn1c2c(c(=O)n3ncc(C(=O)Nc4ccc(C(=O)OC)cc4)c13)CN(Cc1ccc(OC)cc1)CC2 89.1 µM [inhibitor, partial curve]
CC1CN(C(=O)COC(=O)c2cnc(Cl)c(Cl)c2)CC(C)O1 (stereo unspecified) 100 µM [inhibitor, single point]
CCOc1ccc(/C=N/N2CCN(Cc3ccccc3)CC2)cc1 44.7 µM [inhibitor, partial curve]
CSc1nc(-c2ccccc2)nc2c1COC(C)(C)C2 56.2 µM [inhibitor, partial curve]
CC1N(C)c2cc(NC(=O)c3cccs3)c(P(=O)(Nc3ccc([N+](=O)[O-])cc3)N3CCOCC3)cc2C1(C)C (stereo unspecified) 39.8 µM [inhibitor, full curve]
C/C(=N\NC(=S)NCCc1ccccc1)c1ccc(C)cc1 28.2 µM [inhibitor, full curve, poor fit]
COc1ccc(CCN2Cc3c(cccc3[N+](=O)[O-])C2=O)cc1OC 25.1 µM [inhibitor, full curve, poor fit]
CCc1cc(=O)oc2c(CNCc3ccccc3F)c(O)c(Cl)cc12 31.6 µM [inhibitor, partial curve]
Cc1nn(-c2ccccc2)c(N)c1Sc1ccc([N+](=O)[O-])cc1 79.4 µM [inhibitor, partial curve, poor fit]
CCCCCCCCCCCCCCCC[n+]1cccc2ccccc21 100 µM [inhibitor, single point]
CC(=O)c1c(C)c2c(n1CCN(C)C)CCCC2 56.2 µM [inhibitor, partial curve, poor fit]
O=C(CSc1ccsc1[N+](=O)[O-])NCc1ccco1 56.2 µM [inhibitor, partial curve]
CC(=O)/C(=N\Nc1ccc(C)cc1)Sc1nncn1C 14.1 µM [inhibitor, partial curve, poor fit]
CC(=O)Nc1nnc(-c2c(-c3c(Cl)cccc3Cl)noc2C)o1 70.8 µM [inhibitor, single point]
CCOc1ccc(NC(=S)NCCCN2CCN(c3ccc(OC)cc3)CC2)cc1 39.8 µM [inhibitor, partial curve]

Activity change, negative = inhibition, inactive:
O=S(=O)(c1ccc(Br)cc1)N1CCCC1c1nc2ccccc2s1 (stereo unspecified) -3.22%
O=S(=O)(c1ccccc1C(F)(F)F)N1CCN(c2nc(-c3ccccc3)nc3ccccc23)CC1 -7.09%
CC(C)[C@H](NC(=O)c1ccccc1)C(=O)OCc1nc2scc(-c3ccccc3)c2c(=O)[nH]1 16.3%
Cc1ccc(S(=O)(=O)CNC(=O)c2ccccc2)cc1 1.16%
Cc1cc(C)cc(N(CC(=O)NC2CCCC2)C(=O)CCC(=O)Nc2nccs2)c1 -13.3%
CCN(CC)C(=S)NCCc1ccccc1 -9.09%
CCOC(=O)N1CCN(CC(=O)NC(=O)Nc2ccc3c(c2)OCCO3)CC1 -9.66%
COCC(=O)Nc1nnc(Cc2ccc(OC)c(OC)c2)s1 -8.11%
CCOc1ccccc1NC(=O)C1=C(C)Nc2ncnn2C1c1sccc1C (stereo unspecified) -14.7%
COCCn1nnnc1C(c1ccc(OC)c(OC)c1)N1CCN(C(=O)c2ccco2)CC1 (stereo unspecified) -13.7%
COc1cccc(NC(=O)CCc2nc(-c3ccccc3F)no2)c1 -5.84%
COc1cc(C(=O)Nc2scc(-c3ccccc3)c2C(=O)O)cc(OC)c1OC -18.2%
COc1ccc(Cl)cc1NC(=O)Cn1c(C)csc1=O -5%
